Data: patent US9943610B2, “Hydrophilic self-immolative linkers and conjugates thereof” (BioAlliance C.V., priority 2012, dated 2018)

Tests used:
colorectal cancer DLD-1 = assay: ADC treatment in DLD-1 subcutaneous xenograft model; type: in vivo, C.B-17 SCID mice; settings: DLD-1 xenograft, SCID mice, 3 mg/kg intravenously at days 1 and 5; vehicle approached 500 mm^3 at day 14
[1] = DLD-1 xenograft, SCID mice, 3 mg/kg at days 1 and 5, after treatment
Description: To establish a subcutaneous xenograft model, 5×10^6 DLD-1 colorectal cancer cells were implanted into the right flank of C.B-17 SCID mice (Lasco, Taipei, Taiwan). Drug-conjugated c5D7 ADC was administered intravenously at 3 mg/kg at days 1 and 5 post tumor inoculation. Tumor volume was measured twice weekly with a caliper in two perpendicular dimensions, and calculated according to the formula (0.52×length×width×width).

[2] = system: colorectal cancer cell line DLD-1; assay: In-vitro cytotoxicity by WST-1 assay, DLD-1; type: cell-based; settings: DLD-1 (binding-positive), Table 6, below 10% is background
Description: The colorectal cancer cell line DLD-1 (BCRC, Cat. No. 60132) was cultured in RPMI Medium 1640 supplemented with 10% FBS, 1 mM sodium pyruvate (GIBCO, Cat. No. 11360), and 100 U/mL penicillin/100 μg/mL streptomycin.
(§1) In-Vitro Cytotoxicity by WST-1 Assay
(§2) Cancer cells SNU-16, Panc 02.03B, COLO 205 and SW480 were seeded 1×10^4, 3×10^3, 2×10^4 and 1.2×10^4 cells/well, respectively, on 96-well microtiter plates. Cancer cells DLD-1 and PANC-1 were seeded 1×10^4 cells/well on 96-well microtiter plates. h5F1Ca.1/Tap18H ADC, h5F1Ca.1/Tap18Hr1 or naked antibody h5F1Ca.1 were added in triplicate at final concentration of 3 μg/mL and 1 μg/mL or final indicated concentrations and a final volume 200 μL/well. Cells were then incubated at 37° C. and 5% CO2, and cell viability was detected at 72 hours or 96 hours by cell proliferation reagent WST-1 (Roche (Nutley, N.J.), Cat. No. 11644807001) following manufacturer's instructions. In brief, at the end of incubation 100 μL, of medium was withdrawn and 10 μL/well of WST-1 was added to the tested cell line. After optimal color development (when OD450 of untreated control ≥1.00), absorbance at 450 nm (OD450 value) was measured by spectrophotometer (Molecular Devices (Sunnyvale, Calif.), VERSAmax microplate reader). The mean of the triplicates was obtained and background (medium control) was subtracted. […]

[3] = system: pancreatic cancer cell line PANC-1; assay: In-vitro cytotoxicity by WST-1 assay, PANC-1; type: cell-based; settings: PANC-1 (binding-negative), Table 6, below 10% is background
Description: The pancreatic cancer cell line PANC-1 (BCRC, Cat. No. 60284) was cultured in Dulbecco's modified Eagle's medium (GIBCO, Cat. No. 11965) supplemented with 10% FBS and 100 U/mL penicillin/100 μg/mL streptomycin.
as §1, §2

B1: c5D7/Tap18Hr1: ADC of chimeric anti-transferrin receptor antibody c5D7 conjugated to monomethyl dolastatin 10 via piperazine containing linker (Tap-18Hr1, Table 5) (conjugate)
heavy: EVQLQQSGPEVVKPGASMKMSCKTSGYKFTGYYMDWVKQSLGASFEWIGRVIPSNGDTRYNQKFEGKATLTVDRSSSTAYMELNSLTSEDSAVYYCARKPLSGNAADYWGQGTSVTVST[letters of human IgG1 constant region omitted]
light: ETTVTQSPASLSVATGEKVTIRCITSTDIDDDMNWYQQKPGEPPKLLISDGNTLRPGVPSRFSSSGYGTDFVFTIENTLSEDITDYYCMQSDNMPFTFGSGTKLEIKRTVAAPSVFIFPPSDEQLKSGTASVVCLLNNFYPREAKVQWKVDNALQSGNSQESVTEQDSKDSTYSLSSTLTLSKADYEKHKVYACEVTHQGLSSPVTKSFNRGEC
tumor growth (colorectal cancer DLD-1): completely suppressed tumor growth | body weight [1]: remained unchanged | body weight, average [1]: 25 g | % inhibition ([2]; 0.1 μg/mL): 35.4% | % inhibition ([2]; 0.3 μg/mL): 62.0% | % inhibition ([3]; 0.1 μg/mL): 2.9% | % inhibition ([3]; 0.3 μg/mL): 1.4%
